Out of some 390,000 compounds screened, about 17,000 (4.4%) were called active. The shares of active, inactive and inconclusive entries below differ from those in the screen. Calls follow the shape of the dose curve; as a rule, active = well fitted inhibition curve with a large enough effect; inconclusive = small, poorly fitted or top-dose-only effect; inactive = no such curve, though single readings can be large or run the other way. Potencies beside an inconclusive call are fits to weak or partial responses and may not hold up.
biological target: Lysine-specific demethylase 4A (Homo sapiens) (UniProt O75164); assay: qHTS Assay for Inhibitors of JMJD2A-Tudor Domain; conditions: AlphaScreen JMJD2A-Tudor / H3K4me3 peptide binding; activity change, negative = inhibition: at 114 µM (top of the series); also: nearly all actives have a fitted effect of over 50% in size
UniProt O75164, sequence (O75164 whole entry, looked up, the tested form may be a part): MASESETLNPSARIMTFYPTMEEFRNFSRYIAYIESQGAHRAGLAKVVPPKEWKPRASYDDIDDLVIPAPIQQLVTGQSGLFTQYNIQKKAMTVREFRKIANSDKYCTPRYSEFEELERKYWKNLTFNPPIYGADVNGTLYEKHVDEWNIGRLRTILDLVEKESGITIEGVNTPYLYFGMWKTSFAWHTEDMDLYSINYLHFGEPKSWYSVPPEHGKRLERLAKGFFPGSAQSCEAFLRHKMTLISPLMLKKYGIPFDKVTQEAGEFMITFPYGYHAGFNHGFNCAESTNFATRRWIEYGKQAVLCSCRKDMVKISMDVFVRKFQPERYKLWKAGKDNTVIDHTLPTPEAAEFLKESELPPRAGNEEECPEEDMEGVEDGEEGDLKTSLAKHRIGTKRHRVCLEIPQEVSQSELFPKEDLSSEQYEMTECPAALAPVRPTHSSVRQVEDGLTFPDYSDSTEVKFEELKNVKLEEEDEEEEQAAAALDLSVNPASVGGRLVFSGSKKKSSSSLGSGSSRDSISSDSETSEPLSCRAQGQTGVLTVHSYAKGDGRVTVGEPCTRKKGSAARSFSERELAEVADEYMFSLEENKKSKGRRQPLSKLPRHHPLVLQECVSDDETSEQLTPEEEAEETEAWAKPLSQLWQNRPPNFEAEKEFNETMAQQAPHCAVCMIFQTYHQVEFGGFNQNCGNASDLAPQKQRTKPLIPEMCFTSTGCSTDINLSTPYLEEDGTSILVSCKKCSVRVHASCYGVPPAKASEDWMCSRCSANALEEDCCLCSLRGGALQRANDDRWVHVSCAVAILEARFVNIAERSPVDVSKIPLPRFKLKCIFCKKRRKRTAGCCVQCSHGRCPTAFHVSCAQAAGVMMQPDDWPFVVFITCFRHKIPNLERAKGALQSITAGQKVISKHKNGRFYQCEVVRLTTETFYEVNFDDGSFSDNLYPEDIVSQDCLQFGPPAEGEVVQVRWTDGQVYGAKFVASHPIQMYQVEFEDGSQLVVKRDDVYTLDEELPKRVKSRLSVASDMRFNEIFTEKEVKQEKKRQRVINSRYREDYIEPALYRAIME
% is scaled to controls: 0 for no effect and ±100 for the full control effect; potency is read from the fitted curve at half-maximal effect; tags tell the direction and shape of the fitted curve.

Structure (SMILES) | activity change, negative = inhibition | Potency
Cc1ccc(N2C(N)=C(C#N)C(c3cccnc3)C3=C2CCCC3=O)cc1 (stereo not drawn) | inactive: -16.8% | 
O=C(Nc1ccc(F)cc1)C1CCN(c2nc3ccccc3n3cccc23)CC1 |  | inconclusive: 56.2 µM [inhibitor, partial curve]
Cc1ccc(OCCSc2nc3ccc(NC(=O)c4ccc5c(c4)OCO5)cc3s2)cc1 | inactive: -8.28% | 
O=c1[nH]c(=O)n(Cc2ccccc2)c2nc(-c3ccc(Oc4ccc(F)cc4)c([N+](=O)[O-])c3)n(CCO)c12 |  | inconclusive: 25.1 µM [inhibitor, full curve, poor fit]
COc1cc(/C=N/NC(=S)NC2CC3CC2C2C=CCC32)ccc1O (stereo not drawn) |  | inconclusive: 44.7 µM [inhibitor, partial curve]
CCCCN(C)C(=O)C1CCN(Cc2ccc(OCc3ccccc3)cc2)CC1 |  | active: 3.55 µM
CSc1ccc(CCNC(=O)CCn2c(=O)c3cccn3c3cccnc32)cc1 | inactive: -9.16% | 
CCOc1ccc(-c2cc3c(=O)n(CC(=O)NCc4ccc(OC)cc4)ccn3n2)cc1 |  | inconclusive: 6.31 µM [inhibitor, full curve]
CC(C)(C)CC(C)(C)N=C1Nc2ccccc2NC12C[C@H]1CCC(=O)N3CC[C@@H](C2)[C@@H]13 (stereo partly drawn) |  | inconclusive: 35.5 µM [inhibitor, partial curve]
COc1cccc(/C=C2/CN(C)CC3=C2OC(N)=C(C#N)C3c2cccc(OC)c2)c1 (stereo not drawn) |  | inconclusive: 44.7 µM [inhibitor, partial curve]
CCS(=O)(=O)C1=NSC2=NC(=O)/C(=C\c3ccc(OS(=O)(=O)c4ccccc4)cc3)C(=N)N21 |  | active: 44.7 µM
CCS(=O)(=O)N1CCc2cc(C(=O)Nc3cccc(C)c3C)ccc21 |  | inconclusive: 50.1 µM [inhibitor, partial curve]
O=C(CSc1nc(-c2ccccc2)[nH]c1-c1ccccc1)Nc1ccc2c(c1)OCO2 |  | inconclusive: 22.4 µM [inhibitor, full curve]
COc1cc2c(cc1OC)C1(C)N(CC2)C(C(C)=O)=NN1c1ccc(Cl)cc1 (stereo not drawn) | inactive: -27.9% | 
COc1cccc2c(SCC(=O)N/N=C/c3ccc(O)c(O)c3)cc(C)nc12 |  | inconclusive: 22.4 µM [inhibitor, full curve]
Cc1c(Nc2nc(-c3ccc(Cl)cc3)cs2)c(=O)n(-c2ccccc2)n1C |  | inconclusive: 17.8 µM [inhibitor, full curve, poor fit]
COc1cc(/C=N/c2oc(-c3ccccc3)cc2C#N)ccc1O |  | inconclusive: 15.8 µM [inhibitor, partial curve]
Fc1ccc(Oc2nc(-c3ccccn3)nc3ccccc23)cc1 |  | inconclusive: 22.4 µM [inhibitor, full curve]
Cc1c(C(=O)Oc2ccc(-c3cnc4ccccc4n3)cc2)cccc1[N+](=O)[O-] | inactive: -34.1% | 
Cc1cc(NS(=O)(=O)c2ccc(NC(=S)NC(=O)c3cccc(S(=O)(=O)N(C)C)c3)cc2)no1 | inactive: -9.15% | 
CCOc1ccc(Nc2nc(Cc3nnc(SCC(N)=O)o3)cs2)cc1 |  | inconclusive: 89.1 µM [inhibitor, partial curve]
CCN(CC)c1ccc(NC(=O)CN(C)Cc2cccs2)cc1 |  | active: 39.8 µM

Structure (SMILES) | activity change, negative = inhibition | Potency
Fc1ccc(Nc2nc3nonc3nc2Nc2cccc(C(F)(F)F)c2)cc1 |  | inconclusive: 28.2 µM [inhibitor, full curve]
CC1Sc2ccc(S(=O)(=O)CCC(=O)N3CCc4ccccc43)cc2NC1=O (stereo not drawn) |  | active: 25.1 µM
Cc1ccc(NC(=O)Cn2cnc3c(oc4nc5c(cc43)COC(C)(C)C5)c2=O)cc1 | inactive: -0.676% | 
CC(C)(C)OC(=O)[C@H](Cc1ccccc1)NC(=O)c1nc[nH]c1C(=O)N[C@@H](CCCCN)C(=O)OC(C)(C)C |  | inconclusive: 22.4 µM [inhibitor, partial curve]
COc1ccc(CNc2ncnc3c2[nH]c2ccccc23)cc1 |  | inconclusive: 56.2 µM [inhibitor, partial curve]
COc1ccccc1NC(=O)N1CCC(c2nc3ccccc3o2)CC1 | inactive: -12.8% | 
Cc1ccc(/C(O)=C/C(=O)C(=O)NNC(=O)C(O)(c2ccccc2)c2ccccc2)cc1 |  | inconclusive: 50.1 µM [inhibitor, partial curve]
CCOC(=O)C1(CCOc2ccccc2)CCN(Cc2ccc(O)c(OCC)c2)CC1 |  | inconclusive: 89.1 µM [inhibitor, partial curve, poor fit]
COc1ccccc1Cn1c(CNS(=O)(=O)c2ccc3c(c2)CCCC3)nc2cccnc21 | inactive: -23.9% | 
O=C(/C=C/c1ccco1)NC(=S)Nc1ccccc1N1CCOCC1 |  | inconclusive: 50.1 µM [inhibitor, partial curve]
COc1ccc(-c2cc3ccccc3n2CC(O)CNCCO)cc1 (stereo not drawn) |  | active: 5.01 µM
CC1=C(O)C(=O)C(C2=C(O)C(=O)C(C)=C(O)C2=O)=C(O)C1=O |  | active: 0.708 µM
C/C(=N\Nc1ccc(Cl)cc1)c1c(O)cc(C)oc1=O |  | inconclusive: 15.8 µM [inhibitor, partial curve, poor fit]
O=C(OCc1cccc(C(F)(F)F)c1)c1cc([N+](=O)[O-])ccc1N1CCOCC1 |  | inconclusive: 35.5 µM [inhibitor, partial curve]
S=c1[nH]nc(Cc2cccs2)n1-c1ccccc1Cl |  | active: 14.1 µM
CNC(=S)N(CCc1c(C)[nH]c2ccc(Cl)cc12)Cc1cccnc1 |  | inconclusive: 56.2 µM [inhibitor, partial curve]
CC(=NNC(=S)N1CCCCC1)c1cccc(C)n1 |  | active: 25.1 µM
C#CCOCCOCCOCCNc1nc(N2CCN(C(=O)Cn3cc(CCO)nn3)CC2)nc(N2CCN(C(=O)[C@H]([C@@H](C)CC)n3cc(CCCCN)nn3)CC2)n1 | inactive: -21% | 
N#C/C(=C\c1cn[nH]c1-c1ccccc1)C(=O)NC1CCCCCC1 |  | inconclusive: 63.1 µM [inhibitor, partial curve, poor fit]
O=[N+]([O-])c1ccc(SCc2ccco2)cc1N1CCOCC1 |  | inconclusive: 56.2 µM [inhibitor, partial curve]
O=C(NN1C(=O)CSC1=S)c1cccnc1 |  | inconclusive: 89.1 µM [inhibitor, single point]

Reference: PubChem BioAssay AID504339 (National Center for Advancing Translational Sciences (NCATS), 2011)
